{"source": "patent US20230295329A1", "about": "(published 2023)", "biological_target": "T1, PD-1-His protein (Cat. #10377H08H, Sino Biological) (human, UniProt Q15116 fragment)", "T1 construct": "Bought reagent; also called huPD-1-his; hu PD-1-his; not shown: His tag of the bought protein", "T1 sequence (Q15116 25-167 limits assumed)": "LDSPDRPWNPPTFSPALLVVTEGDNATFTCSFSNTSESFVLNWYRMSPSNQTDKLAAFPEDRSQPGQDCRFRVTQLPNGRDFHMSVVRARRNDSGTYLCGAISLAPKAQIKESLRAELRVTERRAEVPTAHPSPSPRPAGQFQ", "assay": "ELISA, PD-1-His coated, HRP goat anti-human IgG detection"}
{"binder": "Hu33-6.IgG4AA (antibody, Full-length IgG4-AA (S228P, F234A, L235A) antibody with kappa light chain) heavy: KVQLVESGGGLVQPGGSLRLSCAASGFTFSSYAMSWVRQAPGKGLEWVATISGGGVDTYYQDNVQGRFTISRDNAKNSLYLQMNSLRAEDTAVYYCASPYGHGYFDVWGQGTTVTVSSASTKGPSVFPLAPCSRSTSESTAALGCLVKDYFPEPVTVSWNSGALTSGVHTFPAVLQSSGLYSLSSVVTVPSSSLGTKTYTCNVDHKPSNTKVDKRV[here human IgG4 Fc with S228P F234A L235A (EU numbers) without letters] light: DIQMTQSPSSLSASVGDRVTITCRASQDINNFLNWYQQKPGKAPKLLIYYTSSLHSGVPSRFSGSGSGTDYTLTISSLQPEDFATYYCQQGNTLPWTFGGGTKVEIKRTVAAPSVFIFPPSDEQLKSGTASVVCLLNNFYPREAKVQWKVDNALQSGNSQESVTEQDSKDSTYSLSSTLTLSKADYEKHKVYACEVTHQGLSSPVTKSFNRGEC", "values": [{"measurement": "OD value MAX", "result": 1.71}]}
